{
  "source": "paper PMC4336329",
  "about": "(PLoS ONE, 2015)",
  "note": "Out of some 310,000 compounds screened, about 2,200 (0.71%) showed an effect of 50% or more. Effects have a minus sign here. Some of the results follow.",
  "data": [
    {"target": "human ether-à-go-go-related gene (hERG) potassium channel (human, UniProt Q12809)", "sequence (Q12809 whole entry, looked up)": "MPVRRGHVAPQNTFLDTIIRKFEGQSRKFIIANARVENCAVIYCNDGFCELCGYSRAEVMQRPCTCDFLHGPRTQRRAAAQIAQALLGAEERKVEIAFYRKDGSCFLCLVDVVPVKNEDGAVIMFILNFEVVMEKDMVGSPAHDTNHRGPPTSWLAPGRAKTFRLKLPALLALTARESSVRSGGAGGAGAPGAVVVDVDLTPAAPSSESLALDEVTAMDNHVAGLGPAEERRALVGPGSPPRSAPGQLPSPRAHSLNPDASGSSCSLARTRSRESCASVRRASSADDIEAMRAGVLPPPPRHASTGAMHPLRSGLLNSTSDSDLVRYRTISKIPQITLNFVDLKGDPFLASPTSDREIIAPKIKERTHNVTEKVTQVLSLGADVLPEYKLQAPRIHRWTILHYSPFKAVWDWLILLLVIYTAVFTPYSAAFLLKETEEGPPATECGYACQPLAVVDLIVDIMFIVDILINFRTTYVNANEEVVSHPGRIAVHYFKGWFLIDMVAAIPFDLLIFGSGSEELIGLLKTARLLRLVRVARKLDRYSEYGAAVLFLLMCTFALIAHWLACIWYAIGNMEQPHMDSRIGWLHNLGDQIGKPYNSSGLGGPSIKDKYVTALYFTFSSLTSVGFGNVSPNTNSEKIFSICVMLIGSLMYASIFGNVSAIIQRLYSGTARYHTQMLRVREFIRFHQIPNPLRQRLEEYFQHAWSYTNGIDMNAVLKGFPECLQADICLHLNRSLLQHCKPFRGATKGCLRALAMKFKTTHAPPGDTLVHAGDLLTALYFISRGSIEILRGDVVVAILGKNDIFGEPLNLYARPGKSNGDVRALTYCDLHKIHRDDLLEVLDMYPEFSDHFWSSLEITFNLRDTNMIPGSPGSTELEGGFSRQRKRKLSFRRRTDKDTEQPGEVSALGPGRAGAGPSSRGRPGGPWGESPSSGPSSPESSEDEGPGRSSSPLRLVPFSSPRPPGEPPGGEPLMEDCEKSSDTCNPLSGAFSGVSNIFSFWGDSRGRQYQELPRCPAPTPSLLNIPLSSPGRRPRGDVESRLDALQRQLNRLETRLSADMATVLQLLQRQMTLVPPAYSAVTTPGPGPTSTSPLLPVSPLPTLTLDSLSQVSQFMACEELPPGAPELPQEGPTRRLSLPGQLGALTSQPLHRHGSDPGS", "test": "primary screen, population patch clamp on CHO cells stably expressing hERG", "units": {"hERG current change (%, negative = inhibition) at 1uM": "%"}, "values": [
      {"smiles": "Br.CC(C)CC(N)C(=O)OCc1ccc([N+](=O)[O-])cc1", "note": "(stereo not shown)", "hERG current change (%, negative = inhibition) at 1uM": 13.7},
      {"smiles": "CSc1nnc(C)c(=O)n1COC(=O)c1ccccc1", "hERG current change (%, negative = inhibition) at 1uM": 10.5},
      {"smiles": "O=C(CCCc1nc2ccccc2s1)N1CCN(c2ccccc2)CC1", "hERG current change (%, negative = inhibition) at 1uM": -1.64},
      {"smiles": "CCOC(=O)CC(NC(=O)Cn1nnc(-c2ccccc2F)n1)c1ccccc1Cl", "note": "(stereo not shown)", "hERG current change (%, negative = inhibition) at 1uM": 13.9},
      {"smiles": "CCOc1ccc(N(CC(=O)N/N=C/c2cc(Br)c(C)o2)S(C)(=O)=O)cc1", "hERG current change (%, negative = inhibition) at 1uM": 6.96},
      {"smiles": "Cc1cccc(Nc2cc(=O)n(C)c(=O)[nH]2)c1", "hERG current change (%, negative = inhibition) at 1uM": 15.4},
      {"smiles": "CCC(=O)N1CCc2cc(S(=O)(=O)CCC(=O)NC3CCCCC3)ccc21", "hERG current change (%, negative = inhibition) at 1uM": 15.6},
      {"smiles": "O=C(NC1CCCCC1)C(c1ccc2ncccc2c1)N(Cc1ccc(F)cc1)C(=O)c1cccs1", "note": "(stereo not shown)", "hERG current change (%, negative = inhibition) at 1uM": 7.84},
      {"smiles": "O=C(COC(=O)c1ccc2ccccc2n1)Nc1cccc(S(=O)(=O)NC2=NCCCCC2)c1", "hERG current change (%, negative = inhibition) at 1uM": -2.47},
      {"smiles": "Cn1c(SCC(=O)NC2CC2)nnc1-c1ccccn1", "hERG current change (%, negative = inhibition) at 1uM": 4.72},
      {"smiles": "COc1ccc(/C=C2\\SC(=O)N(CC(=O)NCCCn3ccnc3)C2=O)cc1", "hERG current change (%, negative = inhibition) at 1uM": -1.63},
      {"smiles": "CC(=O)NCCNC(=O)C1CCC(CNc2nc(=S)[nH]c3ccccc23)CC1", "note": "(stereo not shown)", "hERG current change (%, negative = inhibition) at 1uM": 8.05},
      {"smiles": "O=[N+]([O-])c1ccc(N2CCN(c3ccc([N+](=O)[O-])cc3CO)CC2)c(CO)c1", "hERG current change (%, negative = inhibition) at 1uM": 0.461},
      {"smiles": "O=C(CS(=O)(=O)Cc1ccccc1)Nc1ccccn1", "hERG current change (%, negative = inhibition) at 1uM": -12.7},
      {"smiles": "CC(c1ccco1)N(C(=O)COc1ccc(Cl)cc1)c1ccccn1", "note": "(stereo not shown)", "hERG current change (%, negative = inhibition) at 1uM": 3.47},
      {"smiles": "O=C(/C=C/c1c(Cl)cccc1Cl)NCCCn1ccnc1", "hERG current change (%, negative = inhibition) at 1uM": -0.936},
      {"smiles": "COc1ccc(C(=O)N2CCN(c3ccccc3)CC2)cc1S(=O)(=O)N1CCOCC1", "hERG current change (%, negative = inhibition) at 1uM": 3.28},
      {"smiles": "CCN1CCN(CC(=O)Nc2cc(F)ccc2C)CC1", "hERG current change (%, negative = inhibition) at 1uM": -7.45},
      {"smiles": "O=c1oc2ccccc2c(N2CCCCC2)c1CN1CCCC1", "hERG current change (%, negative = inhibition) at 1uM": -22.6},
      {"smiles": "O=C(c1cc(Cl)nc2ccccc12)N1CCN(S(=O)(=O)c2cccc(F)c2)CC1", "hERG current change (%, negative = inhibition) at 1uM": 7.35},
      {"smiles": "Cc1cc(C(=O)NC(C)Cc2ccccc2)cc(C)c1[N+](=O)[O-]", "note": "(stereo not shown)", "hERG current change (%, negative = inhibition) at 1uM": 7.74},
      {"smiles": "O=c1oc(CCCO)cc2ccc(C#CC3(O)CCCCC3)cc12", "hERG current change (%, negative = inhibition) at 1uM": 10.5},
      {"smiles": "CCOC(=O)c1[nH]c(C)c(C(=O)NCc2ccc(OC)cc2)c1C", "hERG current change (%, negative = inhibition) at 1uM": 9.64},
      {"smiles": "C/C(=N\\O)C(=O)NCCN(C)C", "hERG current change (%, negative = inhibition) at 1uM": 13.6},
      {"smiles": "O=C(NCc1csc2ccc(Cl)cc12)Nc1ccccc1", "hERG current change (%, negative = inhibition) at 1uM": 10.5},
      {"smiles": "Cc1ccccc1OCC(O)Cn1c(SC(C)C)nc2c1c(=O)[nH]c(=O)n2C", "note": "(stereo not shown)", "hERG current change (%, negative = inhibition) at 1uM": -14.1},
      {"smiles": "COc1ccc(CNC(=O)Cn2nc([N+](=O)[O-])cc2C)cc1", "hERG current change (%, negative = inhibition) at 1uM": 14.4},
      {"smiles": "N#Cc1ccc(/C=C/C(=O)c2ccccc2)cc1", "hERG current change (%, negative = inhibition) at 1uM": 10.8},
      {"smiles": "COc1ccc(NS(=O)(=O)c2cc(NC(=O)[C@@H](NC(=O)c3ccccc3)C(C)C)ccc2C)cc1", "hERG current change (%, negative = inhibition) at 1uM": 1.28},
      {"smiles": "CCC(=O)N1c2ccc(S(=O)(=O)CCC(=O)N3CCC4(CC3)OCCO4)cc2CC1C", "note": "(stereo not shown)", "hERG current change (%, negative = inhibition) at 1uM": 5.78},
      {"smiles": "Cc1ccc(S(=O)(=O)N2CCC(C(=O)OC(C)C(=O)NCc3ccccc3)CC2)cc1C", "note": "(stereo not shown)", "hERG current change (%, negative = inhibition) at 1uM": 7.82},
      {"smiles": "CCOC(=O)c1sc2nc(SCC#N)n(CC3CCCO3)c(=O)c2c1C", "note": "(stereo not shown)", "hERG current change (%, negative = inhibition) at 1uM": -1.57},
      {"smiles": "COc1cc(C)c(C)cc1S(=O)(=O)n1c(C)nc2ccccc21", "hERG current change (%, negative = inhibition) at 1uM": 5.21},
      {"smiles": "CCOC(=O)c1ccc(NC(=S)NCCc2ccccc2F)cc1", "hERG current change (%, negative = inhibition) at 1uM": 1.98},
      {"smiles": "O=C(c1c(F)cccc1Cl)N1CCN(S(=O)(=O)c2ccc3c(c2)OCCCO3)CC1", "hERG current change (%, negative = inhibition) at 1uM": 11.2},
      {"smiles": "O=C(CCSc1nnc(-c2ccncc2)o1)Nc1cccc2ccccc12", "hERG current change (%, negative = inhibition) at 1uM": -1.56},
      {"smiles": "CC12CN3CC(C)(CN(C1)C3c1ccc3c(c1)OCO3)C2O", "note": "(stereo not shown)", "hERG current change (%, negative = inhibition) at 1uM": 12.8},
      {"smiles": "O=C(Nc1ccc(NC(=O)C2CC2)nc1)c1cccnc1", "hERG current change (%, negative = inhibition) at 1uM": 8.41},
      {"smiles": "COCCn1c(SCc2ccc(F)cc2)nc2ccccc2c1=O", "hERG current change (%, negative = inhibition) at 1uM": 10.8},
      {"smiles": "O=C(Nc1ccc(-c2nc3ccccc3s2)c(OC(=O)c2ccccc2)c1)c1ccccc1", "hERG current change (%, negative = inhibition) at 1uM": 11.4},
      {"smiles": "Cc1cc(C)cc(N(CC(=O)NC2CCCC2)C(=O)CCC(=O)Nc2cc(C)on2)c1", "hERG current change (%, negative = inhibition) at 1uM": 7.6},
      {"smiles": "CCOc1ccc(NC(=O)c2ccc(NC(=O)c3cn4c5c(c(N6CCN(C)CC6)c(F)cc5c3=O)OCC4C)cc2)cc1", "note": "(stereo not shown)", "hERG current change (%, negative = inhibition) at 1uM": -1.51},
      {"smiles": "COCCCNC(=S)N1CCN(c2ccccc2)CC1", "hERG current change (%, negative = inhibition) at 1uM": 18.3}
    ]}
  ]
}
